Data taken from paper PMC4576195.
No constants are given. Whether binding was seen depends on the method and setting. Binding seen in cells or lysates may run through a third protein. Some entries that bind do so weakly or less than the wild type. Sequences can lack the tags named with a protein.

Biological target: endogenous cyclin B1 (293T cells) (human (endogenous in 293T)), P14635
Assay: co-IP
Conditions: remark: other sources report otherwise

B1: pUL97-Flag, full-length pUL97(1-707), P16788 1-707 (enzyme)
chain: MSSALRSRARSASLGTTTQGWDPPPLRRPSRARRRQWMREAAQAAAQAAVQAAQAAAAQVAQAHVDENEVVDLMADEAGGGVTTLTTLSSVSTTTVLGHATFSACVRSDVMRDGEKEDAASDKENLRRPVVPSTSSRGSAASGDGYHGLRCRETSAMWSFEYDRDGDVTSVRRALFTGGSDPSDSVSGVRGGRKRPLRPPLVSLARTPLCRRRVGGVDAVLEENDVELRAESQDSAVASGPGRIPQPLSGSSGEESATAVEADSTSHDDVHCTCSNDQIITTSIRGLTCDPRMFLRLTHPELCELSISYLLVYVPKEDDFCHKICYAVDMSDESYRLGQGSFGEVWPLDRYRVVKVARKHSETVLTVWMSGLIRTRAAGEQQQPPSLVGTGVHRGLLTATGCCLLHNVTVHRRFHTDMFHHDQWKLACIDSYRRAFCTLADAIKFLNHQCRVCHFDITPMNVLIDVNPHNPSEIVRAALCDYSLSEPYPDYNERCVAVFQETGTARRIPNCSHRLRECYHPAFRPMPLQKLLICDPHARFPVAGLRRYCMSELSALGNVLGFCLMRLLDRRGLDEVRMGTEALLFKHAGAACRALENGKLTHCSDACLLILAAQMSYGACLLGEHGAALVSHTLRFVEAKMSSCRVRAFRRFYHECSQTMLHEYVRKNVERLLATSDGLYLYNAFRRTTSIICEEDLDGDCRQLFPE
In the case of B1, the binding is reported as “binds”.
